The list shows a part of the results.
Each sequence was assayed on PF3D7_0420300 AP2 domain 1 (GST-tagged) (assay: gcPBM binding intensity (ln(normalized median fluorescence intensity)); higher = stronger DNA binding).
In short: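 The binding buffer was 1× PBS containing 1% milk, 0.2 mg/ml BSA, 0.5% salmon testes DNA and 0.03% Triton X-100. In it, GST-tagged P. falciparum DNA-binding domains expressed in E. coli were applied for 1 h to an Agilent 4 × 180k array of primer-extended double-stranded 36-bp intergenic genomic probes plus negative controls. Binding intensity, read with Alexa488 anti-GST antibody and a 488 nm scan, is the highest Masliner-normalised natural-log median intensity across replicate spots of either probe orientation.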

Sequence | gcPBM binding intensity (ln)
GAAAATTCTTAAGGCACACACATATATAATATATAC [CACACA_site569] | 9.77
TATATTAATAGACACACACACATATTTATATTTATA [CACACA_site6859] | 10
TACTGTGATAGCACCACACACGCAAAAGTGAGTATA [CACACA_site1109] | 9.3
TATATTTAGTAAAAAGGTACCATTCTTATTTATATT [CACACA_negctrl_site1165] | 9.13
TTTCAGCCAAACGATAAACTACGACACTTGAACGAA [CACACA_negctrl_site1747] | 9.14
ATATATATATATATATGTACATATTATATATGAACG [XGTACX_site1585] | 9.25
ATATATTTTTTTTCTTCACACACATGAATTATATAT [CACACA_site9053] | 9.85
AATAATAGAAAAAGGTGTACTTATAAACATATACAC [XGTACX_site6921] | 9.5
GTAATTATTATTAATAGTACACACTATGGCATTTCA [XGTACX_site5192] | 9.33
ATAAGAAGGAACATAAATATATCATAAAAAAAAAAA [GTGCAC_negctrl_site169] | 9.26
TAAAATTTTTTATTCACACAAATATAGTTATATATA [CACACA_site5348] | 8.91
AAATTAATATAAATATGTACATAAATAATAAAATAT [XGTACX_site6131] | 9.42
GGAGGTTGTTATAAAAGTACAAAAAGTTGCAATTTT [XGTACX_site7351] | 9.11
ATTTTTCAAACTTTAGTGCAATGAAAGAAAGAAAAA | 8.95
AAGGAATAAAGAAGTTGTACATAATTTGTATCATCC [XGTACX_site3891] | 9.42
GTTTTCCTTCCCTTTCCCCCTCAAAAAAAGGGAACA [TGCATGCA_negctrl_site436] | 9.02
TCATTATATACAATATGTACATATATGTAATAAACA [XGTACX_site4611] | 8.99
AAAGGATATGCTTCATATATATATTGTTATATATGT [CACACA_negctrl_site1672] | 9.24
AAAGAATTCATTATTTGTACTTAAATAAATAAATAA [XGTACX_site5932] | 8.76

Sequence | gcPBM binding intensity (ln)
AGAAAGAAAGAATACACACACACATATATATATATC [CACACA_site3744] | 10.4
ATAACACAAAAAGGGGGTACAATAAAAAAAAAAAAA [XGTACX_site1652] | 9.1
TATTTATATAGGTATACACACATACAAATATGTAAA [CACACA_site7705] | 9.29
AATACCTATAATACAACACACAAGTAATATAAACCT [CACACA_site7661] | 9.82
TTTAAAATAAATATTACACACAAAATATTAAAAAGC [CACACA_site2129] | 9.74
ATATATACATATGGGTGTACATATGCACATATATAT [XGTACX_site8437] | 9.31
ACAAAAAAAAACGTGGTGCATTAATAATATTGTATA [GTGCAC_site9469] | 9.43
TAGTTAATATGAAAAAGTACACGTTTCAGTGAAAGT [XGTACX_site7402] | 9.46
ATTTAATACATACATTCACACACACTAATTGTATAT [CACACA_site9361] | 9.99
AAAAAAAAAAAAACTTGTACATGTGATATTATCTAT [XGTACX_site6169] | 9.24
TTAAATGTTCTATATACATGCAATGATATGTTTCTG [TGCATGCA_site317] | 9.11
TCAAAGTAGGCTTATATGCACACTTTGAAATATTAT [CACACA_site1920] | 9.11
GATAATACATAAATTTATAAGTGGAAGAATAAATAA [CACACA_negctrl_site698] | 9.32
GAAATATTACAAAGTACATGCAACGAAAATTTCAGT [TGCATGCA_site608] | 9.4
ACAAACAAATAAATATGTACGAATAAATAAAATTTT [XGTACX_site4664] | 9.54
CTTTTAGAATAATCAGTGCAAAAAAAAAAAAAAAAA | 8.53
TTTTTTTTCAAAAATACAAAAAAAAAAGAAAAAAAC [CACACA_negctrl_site625] | 9.22
TGCTCTAATTTATATACACACAAATATGTACACATA [CACACA_site7845] | 9.56
TTTCATAAATAATAAAATAAAATATGAAGCAAAAGG [CACACA_negctrl_site1767] | 9.39

Sequence | gcPBM binding intensity (ln)
TAATTTTTTTAAGAGAGTACATGACTCAACAGTTTA [XGTACX_site3103] | 8.76
TTTTTTTTTTTTTGGAGTACATGTTTATAACATAAT [XGTACX_site1799] | 8.98
TTATATCCAACTTGAAAAAAGGTATATGTTTATATA [CACACA_negctrl_site1746] | 8.99
TACACCCACATATATATACACACTTTTATTTAAATA [CACACA_site1596] | 9.61
AATATATATATATGTGCACACATATATAATATGTAT [CACACA_site716] | 9.62
AAAAAAAATAATGTTGCACACAACAACAAACAAAAA [CACACA_site3290] | 9.51
CAATATGGAAAATAAAGTACGCACACAAAAATTCTC [XGTACX_site4793] | 9.63
TAGATAAAATGAACATGTACTCATCTTAATATATAT [XGTACX_site34] | 9.21
ATGTGTTTCTTCAATTGTACTAAAAGGTATATATTG [XGTACX_site4608] | 9.45
TTATTCTAAAAATATACACACAACAACAAACAAACA [CACACA_site1543] | 9.92
TATATAATATATAAATGTACTTTTGTCTTATATGAA [XGTACX_site7211] | 8.93
TAGTAACTTGTATTCACACAAATTATATTATATTAC [CACACA_site5041] | 9.24
ATACTATAATATAAAACACACATATGTACCTTCTAA [CACACA_site7323] | 9.54
ATTATTTAAATTTAACGTACGGAATAAGACATAGAT [XGTACX_site8622] | 9.6
TTCAGGTAATAACATTGTACATGTGTATCATAATTA [XGTACX_site6740] | 9.24
AATCATTAAAGCATAATGTTTATGATCAATATGAAA [CACACA_negctrl_site887] | 9.01
TTTTTTTTTTTTTTTTTTTTACAGAAAAATATTAAA [CACACA_negctrl_site128] | 8.38
ATAAAAAAAAAAAATACACACATATATTTATTTATA [CACACA_site6903] | 9.37

Source: the supplement of paper PMC11417369
